In PubChem BioAssay AID894 (National Center for Advancing Translational Sciences (NCATS), 2007):
About 6,500 (4.3%) of roughly 150,000 compounds were called active. Inconclusive means that the source gave no clear call. Such entries were picked first, then a sample of the others. Calls come from the whole dose curve; as a rule, active = well fitted inhibition curve with a large enough effect (not every such curve was filed as active); inconclusive = small, poorly fitted or top-dose-only effect, or another doubt; inactive = no such curve, though single readings can be large or run the other way. Potencies of inconclusive entries are doubtful fits and often do not repeat.

biological target: 15-hydroxyprostaglandin dehydrogenase [NAD(+)] (Homo sapiens) (UniProt P15428); assay: qHTS Assay for Inhibitors of HPGD (15-Hydroxyprostaglandin Dehydrogenase); conditions: purified HPGD, NADH fluorescence kinetic, PGE2 substrate; activity change, negative = inhibition: active compounds read low
Sequence of UniProt P15428 (P15428 whole entry, looked up): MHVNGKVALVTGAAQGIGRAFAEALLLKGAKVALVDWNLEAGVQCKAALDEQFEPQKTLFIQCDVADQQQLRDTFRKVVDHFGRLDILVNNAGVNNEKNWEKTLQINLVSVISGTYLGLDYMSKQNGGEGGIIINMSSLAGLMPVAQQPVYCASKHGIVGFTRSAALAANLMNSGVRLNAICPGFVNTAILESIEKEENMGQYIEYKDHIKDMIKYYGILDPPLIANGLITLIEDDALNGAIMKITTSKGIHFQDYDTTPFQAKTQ
Outline: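 20 nM HPGD preincubated 15 min at room temperature with compound in 50 mM Tris-HCl pH 8, 0.01% Tween 20. Started with 1 mM NAD+ and 30 uM prostaglandin E2; NADH fluorescence (360/450 nm) read 5 times over 30-s intervals, last minus first.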
% is set by controls: 0 for no effect and ±100 for the full control effect; potency is the fitted concentration of half-maximal effect; tags give direction and shape of the fitted curve.

Potency, active:
C=CCSc1nc2c(c(=O)[nH]c(=O)n2C)n1Cc1ccc(C)cc1 25.1 µM, O=C(c1ccc(S(=O)(=O)c2ccccc2)cc1)N1CCc2ccccc2C1 17.8 µM, Cc1cc(OCC(=O)c2ccc(Br)cc2)ccc1N1C(=O)CCC1=O 14.1 µM, CCc1cccc(NC(=O)CSC2=NS(=O)(=O)c3ccccc32)c1 22.4 µM, Cc1ccc([N+](=O)[O-])cc1NC(=O)c1ccc(C(C)(C)C)cc1 15.8 µM

Potency, inconclusive:
Clc1ccc2nc(-c3ccccc3)[nH]c2c1 31.6 µM [inhibitor, partial curve], Cc1ccc(Nc2ccccc2)cc1 22.4 µM [inhibitor, partial curve], CCC(=O)OCN1C(=O)C=CC1=O 6.31 µM [inhibitor, single point], CC(=O)N(Cc1cc(=O)[nH]c2ccccc12)c1cccc(C)c1 28.2 µM [inhibitor, partial curve], COC(=O)c1cc(-c2ccccc2)sc1NC(=O)c1cc(C)on1 28.2 µM [inhibitor, partial curve], C/C(O)=c1/ccc2cccc3nc(C)nc1c23 28.2 µM [inhibitor, partial curve], COc1ccc(OC)c2c(C)cc(N3CCCN(C)CC3)nc12 31.6 µM [inhibitor, partial curve], CC(C)CC(=O)OC1C(N2CCOCC2)c2c(ccc(/C=C/C(=O)N3CCOCC3)c2O)OC1(C)C (stereo not given) 25.1 µM [inhibitor, partial curve], CCOC(=O)c1c(NC(=O)Nc2ccc(Cl)cc2)sc(C)c1C 39.8 µM [inhibitor, single point], Cc1cccn2c(=O)c3cc(C(=O)N4CCN(C(=O)c5ccco5)CC4)n(C)c3nc12 31.6 µM [inhibitor, partial curve], CCOC(=O)c1c(N)sc(C(=O)Nc2ccc3c(c2)OCO3)c1C 14.1 µM [inhibitor, partial curve], Clc1ccc(-c2nc3ccncc3[nH]2)cc1 7.94 µM [inhibitor, partial curve]

Activity change, negative = inhibition, inactive:
COc1cc([C@H]2c3cc4c(cc3[C@@H](O)[C@@H]3COC(=O)[C@H]23)OCO4)cc(OC)c1OC 2.75%, CCOC(=O)NC(=O)/C(C#N)=N/Nc1ccc(F)cc1 -27%, CN1/C(=C\C(=O)c2ccco2)C(C)(C)c2ccccc21 -22%
